Laboratory results from PubChem BioAssay AID493208 (National Center for Advancing Translational Sciences (NCATS), 2011).
About 340 (0.77%) of roughly 44,000 compounds were called active. Roughly 5% stayed inconclusive and do not appear here. The call rests on the fitted dose curve; in most records, active means well fitted inhibition curve with a large enough effect; inconclusive means small, poorly fitted or top-dose-only effect; inactive means flat fitted curve, though single readings scatter. The list shows a part of the results.

experiment: Acumen qHTS Assay for Inhibitors of the mTORC1 Signaling Pathway in MEF (Tsc2-/-, p53-/-) Cells: Sytravon; settings: phospho-rpS6 immunofluorescence/PI, 24 h; series mostly up to 38.3 µM; activity change, negative = inhibition: at the top concentration; further: nearly all actives have a fitted effect of over 50% in size;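 on activity change, negative = inhibition: plate controls were DMSO for no effect and rapamycin for full effect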
Summary of the method: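 Immunofluorescence of rpS6 phosphorylation in Tsc2-/-, p53-/- MEFs after 24 h compound exposure, normalized to propidium iodide signal. Activity is expressed as % positive cells, thresholded with 7.5 nM rapamycin.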
Potency means the concentration at half of the fitted maximal effect.

| Compound | activity change, negative = inhibition | Potency |
| --- | --- | --- |
| COc1ccccc1CNC(=O)CCc1c(C)nn(-c2ccc(N3CCCC3)nn2)c1C | inactive: -7.99% |  |
| COc1ccc(CC(=O)Nc2nnc3n2CCS3)cc1 | inactive: 1.7% |  |
| O=C(CC1Oc2ccccc2NC1=O)NCc1ccc(F)cc1 (stereo not given) | inactive: -17.9% |  |
| Cc1ccc(CSc2nc3ccsc3c(=O)n2CCC(C)C)cc1 | inactive: -6.97% |  |
| O=c1oc2ccc(F)cc2cc1-c1nc(-c2cccs2)no1 | inactive: 4.88% |  |
| CCN1CCN(C(=O)c2ccc3c(c2)N(Cc2ccc(F)cc2)C(=O)c2ccccc2S3(=O)=O)CC1 | inactive: -6% |  |
| Cc1cccc(OCc2nnc(-c3ccccc3)o2)c1 | inactive: -6.91% |  |
| CCOc1ccc(NC(=O)c2oc(=O)c3ccccc3c2-c2ccc(C)cc2)cc1 | inactive: 1.11% |  |
| CCn1c2c(c(=O)n3ncc(C(=O)Nc4ccc(F)cc4Cl)c13)CN(Cc1ccc(OC)cc1)CC2 | inactive: -0.16% |  |
| CCOc1ccc(-n2c(Cc3ccccc3)nnc2SCc2nc(-c3cccs3)no2)cc1 | inactive: 3.3% |  |
| Cc1ccc(-c2nc(-c3cc4cccc(OCc5cccc(F)c5)c4oc3=O)no2)cc1 | inactive: -1.77% |  |
| COc1cccc(NC(=O)c2sc3nc(C)c(C(=O)Nc4ccc(C)cc4C)c(-c4cccs4)c3c2N)c1 | inactive: 2.36% |  |
| O=C(Nc1ccc(Br)cc1)c1ccc(Cl)c(S(=O)(=O)N2CCCCCC2)c1 | inactive: 9.07% |  |
| Cc1cc(C)cc(NC(=O)C2CCN(S(=O)(=O)c3c(C)noc3/C=C/c3ccco3)CC2)c1 | inactive: -12% |  |
| Cc1ccn2c(Nc3c(C)cccc3C)c(-c3ccc(Cl)s3)nc2c1 | inactive: -28.1% |  |
| CCCCN(CCCC)C1=C(C(=O)c2ccccc2)N(CC)S(=O)(=O)c2ccccc21 | inactive: 15.9% |  |
| COC(=O)CN1C(=O)C(C)(C)c2cc(S(=O)(=O)NCc3ccc(Cl)cc3)ccc21 | inactive: -0.967% |  |
| COc1ccccc1Nc1c2c(nc3ccc(NC(=O)/C=C/c4cc(OC)c(OC)c(OC)c4)cc13)CCCC2 |  | active: 3.29 µM |
| CCCCCc1ccc(-c2ccc(C(=O)Oc3ccc(C(=O)OC)cc3)cc2)nc1 | inactive: -1.15% |  |
| COc1ccc(CNc2nc(-c3ccc(Cl)cc3)nn2C(=O)c2ccccc2)cc1 | inactive: -3.64% |  |

| Compound | activity change, negative = inhibition | Potency |
| --- | --- | --- |
| COc1ccccc1CNC(=O)c1ccc(CSc2nc3ccncc3n2Cc2ccccc2C)cc1 | inactive: -0.139% |  |
| Cc1ccc(-n2ncc(C(=O)N3CCN(c4ncccn4)CC3)c2C2CCN(C(=O)OC(C)(C)C)CC2)cc1 | inactive: 3.87% |  |
| Cc1cc(C)cc(N2C(=O)CS(=O)(=O)C23C(=O)N(C)c2ccccc23)c1 (stereo not given) | inactive: 0.0894% |  |
| Cc1nc(-c2ccc(S(=O)(=O)N(C)Cc3ccccc3)cc2)co1 | inactive: -14.3% |  |
| CCN(CC)C(=O)CSc1cn(CC(=O)N2CCCCCC2)c2ccccc12 | inactive: -4.68% |  |
| Cc1ccc(NC(=O)C2CCN(c3nc4ccccc4nc3C(F)(F)F)CC2)cc1C | inactive: 0% |  |
| CCn1c2ccccc2c2nnc(N3CCN(c4ccc(OC)cc4)CC3)nc21 | inactive: -16.7% |  |
| COc1ccc(-c2cc(C(F)(F)F)nc(SCCC(=O)Nc3ccc(O)cc3)n2)cc1 | inactive: 9.99% |  |
| CCOC(=O)Cn1nc(C)c(NC(=O)COc2ccc(C)c(C)c2)c1C | inactive: -0.89% |  |
| CCCN(CCC)S(=O)(=O)c1ccc(N2CCCCS2(=O)=O)cc1 | inactive: 0% |  |
| CCOc1ccc(-n2cc(-c3ccccc3)c3c(NCc4ccc(F)cc4)ncnc32)cc1 | inactive: 0.539% |  |
| Fc1ccc([C@@H]2Nc3ccccc3[C@@H]3C=CC[C@@H]32)cc1 | inactive: -21.1% |  |
| O=C(Cn1cc(S(=O)(=O)c2ccc(Cl)cc2)c(=O)c2ccccc21)Nc1ccc2c(c1)OCO2 | inactive: -2.55% |  |
| Cc1ccc(C)c(NC(=O)CSc2ncc3c(n2)-c2ccccc2N(Cc2ccccc2C)S3(=O)=O)c1 | inactive: -8.19% |  |
| Cc1ccc(C)c(S(=O)(=O)Nc2ccc3c(c2)CCCN3C(=O)c2cccs2)c1 | inactive: 8.44% |  |
| COc1ccc(CNS(=O)(=O)c2ccc3c(c2)NC(=O)C(C)C(=O)N3)cc1 (stereo not given) | inactive: -0.68% |  |
| Cc1nnc(N2CCC(C(=O)N3CCCCC3)CC2)c2nn(-c3ccccc3)c(C)c12 | inactive: -7.9% |  |
| COc1ccc(C)cc1NS(=O)(=O)c1ccc(-c2cnc(C3CC3)o2)cc1 | inactive: -0.198% |  |
| Cc1ccc(C)c(Nc2ncnc3c2cnn3-c2ccc(F)cc2)c1 | inactive: 8.13% |  |
| O=C(NCCc1ccccc1)c1cc(-c2cccc(Cl)c2)on1 | inactive: -1.61% |  |

| Compound | activity change, negative = inhibition | Potency |
| --- | --- | --- |
| COc1ccc(CNc2n[nH]c(-c3ccco3)n2)cc1OC | inactive: -0.298% |  |
| COc1cc(NC(=O)Cn2c(=O)n(Cc3ccccc3Cl)c(=O)c3cc(OC)c(OC)cc32)cc(OC)c1 | inactive: 0.247% |  |
| CCCc1c(C(=O)OCC)nnc2c(-c3ccccc3)c(C)nn12 | inactive: -4.84% |  |
| COc1ccc(CCN2C(=O)N(c3ccc(F)cc3)C(=O)C2CC(=O)Nc2ccccc2)cc1OC (stereo not given) | inactive: 10.5% |  |
| COc1ccc(C2c3c(n(C)c4ccccc34)C(=O)N2CC(=O)Nc2ccccc2Cl)cc1 (stereo not given) | inactive: -3.84% |  |
| COc1cc(NC(=O)c2cc3nc(-c4ccc(C)cc4)cc(C(F)(F)F)n3n2)cc(OC)c1OC | inactive: 6.15% |  |
| CCc1ccc(NC(=O)c2cc(S(=O)(=O)N3CCCCC3)c[nH]2)cc1 | inactive: 0% |  |
| O=S(=O)(Nc1ccc(F)cc1F)c1ccc(Br)s1 | inactive: -1.02% |  |
| Cc1ccc(CNC(=O)c2nnn(Cc3ccc(F)cc3)c2N)cc1 | inactive: -10.2% |  |
| COc1ccc(OCc2ccc(-c3nc(C#N)c(N4CCC(C(N)=O)CC4)o3)o2)cc1 | inactive: 0.199% |  |
| CC(=O)c1cccc(NC(=O)Cn2c(=O)oc3cc(S(=O)(=O)NCc4ccccc4)ccc32)c1 | inactive: -4.63% |  |
| COc1ccc(CCNC(=O)c2cnc3sc(N4CCOCC4)nn3c2=O)cc1OC | inactive: 1.5% |  |
| CCn1c2c(c(=O)n3ncc(C(=O)Nc4ccc(OC(F)(F)F)cc4)c13)CN(Cc1ccc(OC)cc1)CC2 | inactive: -0.49% |  |
| COc1ccc(CCNC(=O)c2c[nH]n3c(=O)c(Cc4ccccc4Cl)c(C)nc23)cc1OC | inactive: -26.6% |  |
| Cc1ccc2c(c1)cc1c(=O)n(CC(=O)NC(C)CCc3ccccc3)nc(C)n12 (stereo not given) | inactive: -2.71% |  |
| O=C(NCc1cccs1)c1ccc(CSc2nc3cccnc3n2Cc2ccc(F)cc2)cc1 | inactive: 0.0169% |  |
| Cn1c2c(c(=O)n(C)c1=O)C(c1ccccc1[N+](=O)[O-])CC(=O)N2 (stereo not given) | inactive: -3.54% |  |
| COc1ccc(-c2nn(-c3ccc(F)cc3)c3c2cnc2cc4c(cc23)OCO4)cc1 | inactive: 10.2% |  |
| COc1ccccc1CNc1ccc(-c2nc(-c3ccccc3C)no2)cc1[N+](=O)[O-] | inactive: 3.4% |  |
| CCc1ccccc1NC(=O)CSc1nc2n[nH]c(C)c2c(=N)n1-c1cccc(C)c1 | inactive: -6.72% |  |
